Experimental data taken from paper PMC12569658, “An Orally Administered Misuse Deterrent Opioid Prodrug for Treatment of Acute Pain” (JACS Au, 2025).

Test system: C57BL/6J mice
Test: Hot plate latency after PO gavage
Details: 30 mg/kg of oxycodone in prodrug, one-way ANOVA with Dunnett's post hoc, ** = p < 0.01

Ac-Lys[Tyr-Ala-Ala-Ala]-(2-(oxycodone-thionocarbamate)methyl)ethylamino ditrifluoroacetate [compound 20]
analgesic effect versus PO gavage of water only (statistics): statistically significant
